The other results are listed elsewhere or left out.
These sequences were tested on PfAP2-HC AP2 domain (GST-tagged) (assay: gcPBM binding intensity (ln(normalized median fluorescence intensity)); higher = stronger DNA binding).
Outline: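 Alexa488 anti-GST antibody, scanned at 488 nm, detected GST-tagged P. falciparum DNA-binding domains that had been expressed in E. coli and incubated for 1 h on an Agilent 4 × 180k array. The array carried primer-extended double-stranded 36-bp intergenic genomic probes and negative controls. Binding intensity is the highest Masliner-normalised natural-log median intensity across replicate spots of either orientation of each probe.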
In the case of “TATTTACTTATATGCACACATAAATGTGAATTATGG [CACACA_site3777]”, the “gcPBM binding intensity (ln)” value is reported as 9.69. For “TGTATCATAAAAATAACACACGTATTTTTTTTTATT [CACACA_site1050]”, the “gcPBM binding intensity (ln)” value was 9.65. With “AATAATATATATATATATATAATAAAATATAAATAG [CACACA_negctrl_site1515]” the “gcPBM binding intensity (ln)” value was 9.83. For “CCAACATGCCCACGCACACACAAAAAAAGCATGCAT [CACACA_site4217]”, the “gcPBM binding intensity (ln)” value was 10. For “TTATTTATTTATAATAGTACAATTTAATGATCTTCT [XGTACX_site4831]”, the “gcPBM binding intensity (ln)” value was 9.37. In the case of “TGTTTTATACTAAATGAACACACACCCATATATATA [CACACA_site7912]”, the “gcPBM binding intensity (ln)” value is reported as 10.1. With “CAATATATTTGATTTACACACTTACAATGTATATAA [CACACA_site2994]” the “gcPBM binding intensity (ln)” value was 9.55. For “AAAAATAACGTAAATTGTACATGTAAAATTTTCTAT [XGTACX_site7158]”, the “gcPBM binding intensity (ln)” value was 9.78. In the case of “ATATGAAATAATAATAGTACATAAAATAATTTTACT [XGTACX_site6964]”, the “gcPBM binding intensity (ln)” value is reported as 9.66. With “ATAGAAATATATATATGTACATATAGATAAATCTAT [XGTACX_site7833]” the “gcPBM binding intensity (ln)” value was 9.75. With “ATAAATACAGATAACACACACATATATATATATATA [CACACA_site5431]” the “gcPBM binding intensity (ln)” value was 10.2. “AAAAAAAAAAAAGATACACACAAAAATGAATATATA [CACACA_site2099]” was tested, and the “gcPBM binding intensity (ln)” value was 9.95. In the case of “ATTATGTATATAAATTAACACACATATGTGGTTAAT [CACACA_site9028]”, the “gcPBM binding intensity (ln)” value is reported as 9.69. “ACGGGTCAATATATGCGTACTTATTTAAATAATTAA [XGTACX_site1518]” was tested, and the “gcPBM binding intensity (ln)” value was 9.61. “AATAATATAGATTGTACACACAAAATGGGAAAAAAA [CACACA_site1886]” was tested, and the “gcPBM binding intensity (ln)” value was 10.1. In the case of “ATAAATGGAAACAAAAGTACTAAAAAAAAAAAATAA [XGTACX_site1510]”, the “gcPBM binding intensity (ln)” value is reported as 9.65. “TATATATGTATGTATTGTACAATTAAAAATATGTAT [XGTACX_site3990]” was tested, and the “gcPBM binding intensity (ln)” value was 9.68. With “ATCAAGCACCAACACACACACACACCCCCACCCACA [CACACA_site370]” the “gcPBM binding intensity (ln)” value was 11.3. In the case of “TAAATAAATAAAAAAACACACATATATATATATATA [CACACA_site4029]”, the “gcPBM binding intensity (ln)” value is reported as 10. “TTTTATCACATTATTGCACACACATAAAGAAAAAAA [CACACA_site8922]” was tested, and the “gcPBM binding intensity (ln)” value was 9.98. In the case of “ATATATATATATATATGTACATATATATATAATTTT [XGTACX_site4146]”, the “gcPBM binding intensity (ln)” value is reported as 9.62. “ATATATATATATAACTGTACTTATATATACATTTTA [XGTACX_site8605]” was tested, and the “gcPBM binding intensity (ln)” value was 9.64. For “TTATATTTATTTATTTGTACATATTTTTTTTTATAT [XGTACX_site1669]”, the “gcPBM binding intensity (ln)” value was 9.77. With “TTTCTTTTTAAATATATACACACCGTGGGTACATAT [CACACA_site9102]” the “gcPBM binding intensity (ln)” value was 9.73. In the case of “ATATAATAAAATGACACACGCATATATATATATATA [CACACA_site2789]”, the “gcPBM binding intensity (ln)” value is reported as 9.74. “AGGCTCAAATCTAGGTGTACCATTATCGTTGTATCT [XGTACX_site4730]” was tested, and the “gcPBM binding intensity (ln)” value was 9.78. With “ATTTTTTCTTATAATGCATGTAGAAAACCGTACAGC [TGCATGCA_site57]” the “gcPBM binding intensity (ln)” value was 9.31. In the case of “TATGTGTTTATTTGGTGTACATACTAATAAATATAC [XGTACX_site1682]”, the “gcPBM binding intensity (ln)” value is reported as 9.63. With “CCTAAATTATATTATGCACACTTAAAAATATATTTA [CACACA_site5861]” the “gcPBM binding intensity (ln)” value was 9.58. In the case of “TCATATCTTTTGAGCACACATATATATATATAAAGG [CACACA_site3338]”, the “gcPBM binding intensity (ln)” value is reported as 9.57. In the case of “ATTAATATTCTATATGCATGTGAACCATGGTATATA [TGCATGCA_site430]”, the “gcPBM binding intensity (ln)” value is reported as 9.61. For “ATATATATATATATATGTACTTATTTATCGTATTAT [XGTACX_site3520]”, the “gcPBM binding intensity (ln)” value was 10. With “ATAAAATATTAATTTTAAATTAATCAATATATATAA [GTGCAC_negctrl_site474]” the “gcPBM binding intensity (ln)” value was 9.4. For “TATCTTAACAATTAGTGTACAGATAACCAATTAAAA [XGTACX_site3184]”, the “gcPBM binding intensity (ln)” value was 9.55. In the case of “AACATATAAAAATGTGCACACACACCCATATATATA [CACACA_site1525]”, the “gcPBM binding intensity (ln)” value is reported as 10.3. With “ATAATAAATGATAGCACACATATGTACATAAATACA [CACACA_site4634]” the “gcPBM binding intensity (ln)” value was 9.96. With “TGAAGGTTTCAAAAACGTACAAAAAAAAATGTTAGT [XGTACX_site8803]” the “gcPBM binding intensity (ln)” value was 9.62. For “TTTTTTTTTTATGGTACACACACGCGTATGGTTGCA [CACACA_site1876]”, the “gcPBM binding intensity (ln)” value was 10. For “TTTAGAAATAAATACACACATACATTTTTGTATACA [CACACA_site718]”, the “gcPBM binding intensity (ln)” value was 9.74. In the case of “CTTTGTGGTATAGATACACACTATATTAAGATGAAC [CACACA_site5215]”, the “gcPBM binding intensity (ln)” value is reported as 9.61. With “TAAAATAAAAATATAGTGCACAGATTTTGATATTTT [GTGCAC_site9696]” the “gcPBM binding intensity (ln)” value was 9.85. “CACATTATGTATCATACACACAAATAGATATATAAC [CACACA_site6434]” was tested, and the “gcPBM binding intensity (ln)” value was 9.88. For “ACTTTTATTCGCTTACGTACATATATTATATATTAT [XGTACX_site4459]”, the “gcPBM binding intensity (ln)” value was 10.1. “AAAAGAAAATATATGTGTACTAAAATATATATATAT [XGTACX_site3817]” was tested, and the “gcPBM binding intensity (ln)” value was 10. GTTTATTAAACATTAGTGCAATTTTAATCCATTCTA was tested, and the “gcPBM binding intensity (ln)” value was 9.47. In the case of “TACCTACACTTTTGGAGTACAATTAAAAAAAAAAAA [XGTACX_site1403]”, the “gcPBM binding intensity (ln)” value is reported as 9.3. With “TTTAAAGTAATAAAGTGTACAAAAATAAATTCAGCT [XGTACX_site8651]” the “gcPBM binding intensity (ln)” value was 9.99. In the case of “TTCTTTGTAGTATATTAACACACAACTGTTTATAAT [CACACA_site9305]”, the “gcPBM binding intensity (ln)” value is reported as 9.91. With “CAAATCAAAATTAATTAACACACAATTTTAATATTC [CACACA_site8641]” the “gcPBM binding intensity (ln)” value was 9.65. “TATAATGTTGATAATAGTACGTATGAGTTCAAAAAA [XGTACX_site988]” was tested, and the “gcPBM binding intensity (ln)” value was 9.65. “AAATAGAGAAATACAAGTACATACTAAACCAATCTA [XGTACX_site2780]” was tested, and the “gcPBM binding intensity (ln)” value was 9.74. With “AAAGGATATAATACCATACACACATTTATAAAATAA [CACACA_site1931]” the “gcPBM binding intensity (ln)” value was 10.4. With “AAATCATGTTGAAGGGGTACAAAATATGTAATGTTG [XGTACX_site6222]” the “gcPBM binding intensity (ln)” value was 9.82. In the case of “ATATTATATATTTGATGTACATTGAATGAGAGAGAA [XGTACX_site3324]”, the “gcPBM binding intensity (ln)” value is reported as 9.95. For “TTAATCCTTTTTAAAAGTACACATATATATATATAT [XGTACX_site962]”, the “gcPBM binding intensity (ln)” value was 9.75. With “TATATATATATATAATGTACAGAAAAAAAAAAAAAA [XGTACX_site6141]” the “gcPBM binding intensity (ln)” value was 9.58. With “AAAATTATGCAGTAGGTGCAATACCCTCGGCTTTTT [GTGCAC_site9556]” the “gcPBM binding intensity (ln)” value was 9.55.

From the supplement of paper PMC11417369
